From a collection of fitness landscapes (doi:10.1016/j.celrep.2020.107928)
In all, about 81,000 sequences were measured (“one-hybrid fitness for binding NBS DNA”: median about -0.1, highest 2% from about 0.36 on). This is one part of the list.

B1: Caulobacter ParB omega fusion; a variant is named by its letters at X, in order, B8GW30 (parent)
chain: MESVVVGEPGMSEGRRGLGRGLSALLGEVDAAPAQAPGEQLGGSREAPIEILQRNPDQPRRTFREEDLEDLSNSIREKGVLQPILVRPSPDTAGEYQIVAGERAWRAAQRAGLKTVPIMVRELDDLAVLEIGIIENVQRADLNVLEEALSYKVLMEKFERTQENIAQTIGKSXSHVANXMRLLXLPDEVQSYLVSGELTAXHARAIAAAADPVALAKQIIEGGLSVRETEALARKAPNLSAGKSKGGRPPRVKDTDTQALESDLSSVLGLDVSIDHRGSTGTLTITYATLEQLDDLCNRLTRGI

Variants of: B1
Assay: one-hybrid fitness for binding NBS DNA (the Noc-binding site; scaled: cognate 1, non-cognate 0); higher = stronger binding
Details: with NBS DNA site
Procedure, shortened: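 Caulobacter ParB libraries with four specificity codons randomised were screened by bacterial one-hybrid selection in the E. coli USO strain, using a HIS3 reporter whose site lies 19 bp from the promoter. Selection ran for 48 hours at 37°C on M9 lacking histidine, with 0.1 mM IPTG and 5 mM 3-AT. Plasmids were Illumina-sequenced before and after selection, three replicate libraries were pooled, and variants with under 10 reads were dropped. Fitness is the log change in each variant's read ratio to wild type, rescaled against the cognate and non-cognate sites.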

| Variant | one-hybrid fitness for binding NBS DNA |
| --- | --- |
| PAGA | ≤ 0.2 |
| EMGR | ≤ 0.2 |
| MTQV | ≤ 0.2 |
| TLMA | ≤ 0.2 |
| QTLV | ≤ 0.2 |
| MRSW | ≤ 0.2 |
| LFGL | ≤ 0.2 |
| TRKA | 0.345 |
| KPKG | ≤ 0.2 |
| TETL | ≤ 0.2 |
| LKRT | ≤ 0.2 |
| NRDV | ≤ 0.2 |
| CEKR | ≤ 0.2 |
| AMER | ≤ 0.2 |
| TLER | ≤ 0.2 |
| RQMQ | ≤ 0.2 |
| PDKR | ≤ 0.2 |
| SRMA | ≤ 0.2 |
| SNTT | ≤ 0.2 |
| PIIG | ≤ 0.2 |
| PIIC | ≤ 0.2 |
| RKQS | 0.543 |
| HNYS | ≤ 0.2 |
| CIMG | ≤ 0.2 |

| Variant | one-hybrid fitness for binding NBS DNA |
| --- | --- |
| LQRE | ≤ 0.2 |
| CMYG | ≤ 0.2 |
| VCTF | ≤ 0.2 |
| IKRS | ≤ 0.2 |
| HIMC | ≤ 0.2 |
| EKNL | ≤ 0.2 |
| CHGS | ≤ 0.2 |
| NITR | ≤ 0.2 |
| LNHS | ≤ 0.2 |
| RHSW | ≤ 0.2 |
| GFHC | ≤ 0.2 |
| EQYG | ≤ 0.2 |
| NMHW | ≤ 0.2 |
| VNRL | ≤ 0.2 |
| MHVR | ≤ 0.2 |
| ASNC | ≤ 0.2 |
| IYMV | ≤ 0.2 |
| TSLK | ≤ 0.2 |
| SMIT | ≤ 0.2 |
| QDFR | ≤ 0.2 |
| NAPS | ≤ 0.2 |
| FLGN | ≤ 0.2 |
| ADDC | ≤ 0.2 |
| GFRY | ≤ 0.2 |

| Variant | one-hybrid fitness for binding NBS DNA |
| --- | --- |
| PCFE | ≤ 0.2 |
| DHVR | ≤ 0.2 |
| HNRV | ≤ 0.2 |
| PSYM | ≤ 0.2 |
| DITS | ≤ 0.2 |
| SFHW | ≤ 0.2 |
| CGGT | ≤ 0.2 |
| HVHR | ≤ 0.2 |
| DPMY | ≤ 0.2 |
| TNGC | ≤ 0.2 |
| RTAF | ≤ 0.2 |
| PVEA | ≤ 0.2 |
| CIAC | ≤ 0.2 |
| YGAS | ≤ 0.2 |
| PTRK | ≤ 0.2 |
| RDPN | ≤ 0.2 |
| MIVR | ≤ 0.2 |
| HIVA | ≤ 0.2 |
| TQDD | ≤ 0.2 |
| VRLK | ≤ 0.2 |
| PLYE | ≤ 0.2 |
| ANSL | ≤ 0.2 |
| VGDL | ≤ 0.2 |
| TRKT | 0.578 |

| Variant | one-hybrid fitness for binding NBS DNA |
| --- | --- |
| QIKL | ≤ 0.2 |
| TPRH | ≤ 0.2 |
| CPKP | ≤ 0.2 |
| QFHY | ≤ 0.2 |
| MMQR | ≤ 0.2 |
| WTMG | ≤ 0.2 |
| KLAT | ≤ 0.2 |
| RQTW | ≤ 0.2 |
| RKYF | ≤ 0.2 |
| ISFT | ≤ 0.2 |
| YPER | ≤ 0.2 |
| PSDE | ≤ 0.2 |
| PVCM | ≤ 0.2 |
| CTGR | ≤ 0.2 |
| PAAS | ≤ 0.2 |
| QSCH | ≤ 0.2 |
| PHGC | ≤ 0.2 |
| TPTE | ≤ 0.2 |
| TAPC | ≤ 0.2 |
| SAIQ | ≤ 0.2 |
| PCSC | ≤ 0.2 |
| RRQF | 0.221 |
| DGSS | ≤ 0.2 |
| CMNW | ≤ 0.2 |

| Variant | one-hybrid fitness for binding NBS DNA |
| --- | --- |
| AVRV | ≤ 0.2 |
| NQHA | ≤ 0.2 |
| NKDS | ≤ 0.2 |
| MFRT | ≤ 0.2 |
| TMEW | ≤ 0.2 |
| RSAW | ≤ 0.2 |
| WAHL | ≤ 0.2 |
| DEPA | ≤ 0.2 |
| DQSQ | ≤ 0.2 |
| SRKW | ≤ 0.2 |
| NEST | ≤ 0.2 |
| RYPQ | ≤ 0.2 |
| MGSG | ≤ 0.2 |
| NTKY | ≤ 0.2 |
| RADW | ≤ 0.2 |
| TVQG | ≤ 0.2 |
| VVLH | ≤ 0.2 |
| QNFE | ≤ 0.2 |
| YYKE | ≤ 0.2 |
| SNMS | ≤ 0.2 |
| VPVT | ≤ 0.2 |
| CMKE | ≤ 0.2 |
| TVVR | ≤ 0.2 |
| MWMR | ≤ 0.2 |

| Variant | one-hybrid fitness for binding NBS DNA |
| --- | --- |
| KCLN | ≤ 0.2 |
| LIMS | ≤ 0.2 |
| RGKY | ≤ 0.2 |
| QFWG | ≤ 0.2 |
| YQQR | ≤ 0.2 |
| SQRT | ≤ 0.2 |
| TLAA | ≤ 0.2 |
| MPDQ | ≤ 0.2 |
| CMCG | ≤ 0.2 |
| MFQS | ≤ 0.2 |
| YMYS | ≤ 0.2 |
| APGA | ≤ 0.2 |
| VYHG | ≤ 0.2 |
| DKCG | ≤ 0.2 |
| IPQK | ≤ 0.2 |
| NLIS | ≤ 0.2 |
| QAGA | 0.221 |
| PIVT | ≤ 0.2 |
| WAAW | ≤ 0.2 |
| HAPM | ≤ 0.2 |
| TCIT | ≤ 0.2 |
| VGVG | ≤ 0.2 |
| NNNN | ≤ 0.2 |
| HRWL | ≤ 0.2 |

| Variant | one-hybrid fitness for binding NBS DNA |
| --- | --- |
| DQSP | ≤ 0.2 |
| YENR | ≤ 0.2 |
| MTMS | ≤ 0.2 |
| DGEN | ≤ 0.2 |
| KQET | ≤ 0.2 |
| HRSL | ≤ 0.2 |
| MCAN | ≤ 0.2 |
| PANC | ≤ 0.2 |
| CNVW | ≤ 0.2 |
| NASR | ≤ 0.2 |
| DDNE | ≤ 0.2 |
| RTAM | ≤ 0.2 |
| RHTI | ≤ 0.2 |
| LQVL | ≤ 0.2 |
| PPIN | ≤ 0.2 |
| ITTS | ≤ 0.2 |
| HKHV | ≤ 0.2 |
| SVPW | ≤ 0.2 |
| QCPD | ≤ 0.2 |
| PTGW | ≤ 0.2 |
| TAST | ≤ 0.2 |
| WLCC | ≤ 0.2 |
| GPEV | ≤ 0.2 |
| MARK | ≤ 0.2 |

| Variant | one-hybrid fitness for binding NBS DNA |
| --- | --- |
| DTQA | ≤ 0.2 |
| ENDK | ≤ 0.2 |
| RTHS | 0.54 |
| AWIV | ≤ 0.2 |
| MAVS | ≤ 0.2 |
| NPDS | ≤ 0.2 |
| VLTM | ≤ 0.2 |
| SRTI | ≤ 0.2 |
| TFVM | ≤ 0.2 |
| LMFS | ≤ 0.2 |
| LDPM | ≤ 0.2 |
| GHWT | ≤ 0.2 |
| MPPI | ≤ 0.2 |
| QYVV | ≤ 0.2 |
| AGVS | ≤ 0.2 |
| ARKQ | ≤ 0.2 |
| TRYD | ≤ 0.2 |
| MYSG | ≤ 0.2 |
| WSHA | ≤ 0.2 |
| KGLI | ≤ 0.2 |
| AVYL | ≤ 0.2 |
| QTVE | ≤ 0.2 |
| VNTC | ≤ 0.2 |
| PPYI | ≤ 0.2 |

| Variant | one-hybrid fitness for binding NBS DNA |
| --- | --- |
| QLEF | ≤ 0.2 |
| NCYV | ≤ 0.2 |
| QYNL | ≤ 0.2 |
| ECDG | ≤ 0.2 |
| VWNM | ≤ 0.2 |
| SIGS | ≤ 0.2 |
| RTGI | ≤ 0.2 |
| GRMR | ≤ 0.2 |
| GPWG | ≤ 0.2 |
| KHNS | ≤ 0.2 |
| PNAE | ≤ 0.2 |
| ARPT | ≤ 0.2 |
| ADDS | ≤ 0.2 |
| NNIP | ≤ 0.2 |
| FWLT | ≤ 0.2 |
| TMVS | ≤ 0.2 |
| PARG | ≤ 0.2 |
| FPLF | ≤ 0.2 |
| EAHC | ≤ 0.2 |
| PWHT | ≤ 0.2 |
| DTSM | ≤ 0.2 |
| RDDT | ≤ 0.2 |
| QMEM | ≤ 0.2 |
| TDPA | ≤ 0.2 |

| Variant | one-hybrid fitness for binding NBS DNA |
| --- | --- |
| ARGY | ≤ 0.2 |
| LMGI | ≤ 0.2 |
| GEDW | ≤ 0.2 |
| IRMT | ≤ 0.2 |
| HNSC | ≤ 0.2 |
| SWRR | ≤ 0.2 |
| GSAI | ≤ 0.2 |
| SVRL | ≤ 0.2 |
| CSCC | ≤ 0.2 |
| QGQC | ≤ 0.2 |
| RFDG | ≤ 0.2 |
| PPVQ | ≤ 0.2 |
| AGTE | ≤ 0.2 |
| NEHR | ≤ 0.2 |
| PNNH | ≤ 0.2 |
| EKQP | ≤ 0.2 |
| RFFD | ≤ 0.2 |
| THSY | ≤ 0.2 |
| LTFM | ≤ 0.2 |
| ALMG | ≤ 0.2 |
| RVQD | ≤ 0.2 |
| TRHA | ≤ 0.2 |
| SMKS | ≤ 0.2 |
| YAIC | ≤ 0.2 |

| Variant | one-hybrid fitness for binding NBS DNA |
| --- | --- |
| RRWF | ≤ 0.2 |
| VRGY | ≤ 0.2 |
| AHDF | ≤ 0.2 |
| DSSV | ≤ 0.2 |
| LHST | ≤ 0.2 |
| HVPC | ≤ 0.2 |
| YQKN | ≤ 0.2 |
| PDQH | ≤ 0.2 |
| PQNP | ≤ 0.2 |
| AATT | ≤ 0.2 |
| DMKS | ≤ 0.2 |
| DTQK | ≤ 0.2 |
| NRKT | 0.213 |
| MPTI | ≤ 0.2 |
| WKSG | ≤ 0.2 |
| LPHV | ≤ 0.2 |
| PSNR | ≤ 0.2 |
| DIFR | ≤ 0.2 |
| SDSC | ≤ 0.2 |
| AHQV | ≤ 0.2 |
| RGSG | ≤ 0.2 |
| ITGC | ≤ 0.2 |
| AARV | ≤ 0.2 |
| QVYT | 0.268 |

| Variant | one-hybrid fitness for binding NBS DNA |
| --- | --- |
| IEPF | ≤ 0.2 |
| SRSM | ≤ 0.2 |
| CRPY | ≤ 0.2 |
| LSAA | ≤ 0.2 |
| DHGK | ≤ 0.2 |
| DPVR | ≤ 0.2 |
| LRIF | ≤ 0.2 |
| RKIS | 0.403 |
| AHHT | ≤ 0.2 |
| SETL | ≤ 0.2 |
| AWSF | ≤ 0.2 |
| IITM | ≤ 0.2 |
| ASMF | ≤ 0.2 |
| RRPL | ≤ 0.2 |
| CTRS | ≤ 0.2 |
| HPWS | ≤ 0.2 |
| HVKC | ≤ 0.2 |
| QCEV | ≤ 0.2 |
| NAVC | ≤ 0.2 |
| ACEY | ≤ 0.2 |
| TNCW | ≤ 0.2 |
| LIMY | ≤ 0.2 |
| ECKA | ≤ 0.2 |
| HTIS | ≤ 0.2 |

| Variant | one-hybrid fitness for binding NBS DNA |
| --- | --- |
| ALST | ≤ 0.2 |
| NDGC | ≤ 0.2 |
| SDMR | ≤ 0.2 |
| NITV | ≤ 0.2 |
| THRM | ≤ 0.2 |
| WYVL | ≤ 0.2 |
| PSQR | ≤ 0.2 |
| SYGD | ≤ 0.2 |
| KMRA | ≤ 0.2 |
| TYRT | ≤ 0.2 |
| DGHH | ≤ 0.2 |
| RASV | ≤ 0.2 |
| IQTN | ≤ 0.2 |
| TKNK | ≤ 0.2 |
| SDWG | ≤ 0.2 |
| GKTG | ≤ 0.2 |
| NCWG | ≤ 0.2 |
| RVRT | 0.631 |
